Results: the supplement of paper PMC3334620
Whole data set: some 33,000 sequences, median “E-score (-0.5 to 0.5)” near -0.04, cut for the highest 2% near 0.36. The list shows a part of the results.

Each sequence was assayed against T1, Hmlalpha2 (UniProt P0CY09) (assay: PBM E-score (8-mer binding enrichment) (E-score (-0.5 to 0.5)); higher = stronger / more preferred TF binding; most listed sequences are background and not binding sites). Details: protein concentration: 200 nM; construct: GST-full length.
T1 sequence: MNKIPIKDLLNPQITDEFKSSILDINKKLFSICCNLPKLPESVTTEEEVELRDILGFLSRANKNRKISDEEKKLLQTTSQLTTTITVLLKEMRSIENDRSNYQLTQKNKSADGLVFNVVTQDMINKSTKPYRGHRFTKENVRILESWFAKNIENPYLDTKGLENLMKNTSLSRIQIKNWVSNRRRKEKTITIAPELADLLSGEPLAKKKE
Procedure, shortened: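 The E-score, a modified Wilcoxon-Mann-Whitney statistic, was computed by the Universal PBM Analysis Suite for every ungapped eight-base word pooled with its reverse complement. Scans behind it were normalised with masliner after bound GST-tagged yeast transcription factors were detected with fluorescent anti-GST. The proteins, at about 100-200 nM, had been applied to universal all-10-mer Agilent arrays made double-stranded by primer extension.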

Point of comparison: TAGCATAA, “PBM E-score” value 0.0211. Against it:
- AAGGGGCG — lower, -0.361
- GCGCTTCA — lower, -0.216
- GAGACTGC — lower, -0.207
- CCCTGCGC — lower, -0.296
- ACGTTAAA — higher, 0.362
- AAACTATG — higher, 0.097
- ACTGATTA — higher, 0.187
- TCGTGTCA — higher, 0.395
- CGTGCTTC — higher, 0.0983
- CGTTAAAG — higher, 0.251
- CCACGTAG — lower, -0.0349
- ATCACCCC — lower, -0.191
- AACTTATC — lower, -0.0978
- GCGCGTCC — lower, -0.115
- CTAAAAAC — higher, 0.0815
- CCTAGCCG — lower, -0.244
- AGCCCAGA — lower, -0.185
- GAGGTTCA — lower, -0.0376
- ACAACAGA — higher, 0.193
- ATAGGCAG — lower, -0.0885
- CGTACTTC — higher, 0.0387
- CGCACCTA — lower, -0.00929
- TACCCGAA — lower, -0.0229
- ACATATCG — higher, 0.126
- CAGCGGCC — lower, -0.287
- AAACCGAT — lower, -0.0211
- CGTTATAG — higher, 0.175
- ATGTGGTG — higher, 0.112
- GCGGCTCA — lower, -0.179
- GCACTGCC — lower, -0.226
- TGAGAAAA — lower, -0.0832
- CATTTCTC — lower, -0.0284
- AACCCCCA — lower, -0.223
- AGAGTGAA — higher, 0.14
- ACGACCAC — higher, 0.133
- AGAGGCGC — lower, -0.201
- ACGCCCCT — higher, 0.0821
- GGCTAGAA — lower, -0.222
- CTAACAAG — higher, 0.175
- ACGTTCCT — higher, 0.245
- ACCAAGAG — lower, -0.161
- GGAATACA — higher, 0.431
- CGGCGCCC — lower, -0.0686
- GAGCTCAA — higher, 0.0498
- CGGCTCTC — lower, -0.295
- AGCGGATA — lower, -0.329
- ATCGGGGA — higher, 0.0745
- CTTTGGGA — lower, -0.248
- AGGATCCT — lower, -0.168
- CTGTACAG — higher, 0.0499
- CCCCACAA — lower, -0.248
- ACATTACG — higher, 0.336
- ATGCTTGC — lower, -0.201
- GCAACAAA — higher, 0.154
- CGAAGCTA — higher, 0.101
- CCGACAGA — lower, -0.0555
- CGCCTCTA — lower, -0.0968
- GAACGCCC — lower, -0.287
- GCCTAAGC — lower, -0.107
- ACTGGAAG — lower, -0.153
- ACGAGCGC — lower, -0.13
- AATTTGGC — higher, 0.0265
- ATGTGATA — higher, 0.299
- AATTACGT — higher, 0.382
- ATCCCCCA — lower, -0.389
- GCATTACC — lower, 8e-05
- CAGCAGTA — lower, -0.0173
- CAGCTCTC — lower, -0.149
- TAGGACTA — lower, -0.116
- AAATCTTG — higher, 0.166
- AAGACGGG — lower, -0.233
- AGACGGAC — lower, -0.168
- GACCGTAA — lower, -0.145
- CACAATAG — higher, 0.115
- GGCCGGAA — lower, -0.354
- AACGTCGA — higher, 0.218
- CAAACGTG — higher, 0.192
- ACATATGG — higher, 0.104
- CTACAACC — higher, 0.153
- GGCGCAGA — lower, -0.231
- ACGGTAGC — higher, 0.0743
- CTCGCTTC — lower, -0.274
- CCATTGTC — lower, -0.142
- AAGTGCGG — lower, -0.0262
- AGCCGTAG — lower, -0.0781
- ATTGGGGG — lower, -0.294
- ACAATAGA — higher, 0.202
- ACATGTTC — higher, 0.371
- GCCAGTAA — lower, -0.258
- ATTCCAAA — higher, 0.116
- CGATAGAG — lower, -0.0653
- CGCACTCA — lower, -0.158
- GGCCGGCA — lower, -0.184
- TGACCACA — lower, -0.0512
- ACTTCTAG — lower, -0.141
- AAACATAG — higher, 0.291
- GAGGCCGA — lower, -0.289
- CGTCAGGC — lower, -0.0954
- CTCCCACC — lower, -0.386
- CGTCTAGA — lower, -0.229
- ACTTTATG — lower, -0.00077
- TAATAGGA — higher, 0.234
- GCGTACGA — higher, 0.0253
- CCACGACG — lower, -0.097
- CGTGCTCA — higher, 0.133
- GATGCCAA — lower, -0.0722
- AATTGTGC — lower, -0.0366
- CGGCCGCC — lower, -0.216
